Among all 410,000 compounds or so, about 6,400 (1.6%) were called active. The inconclusive results got no clear call from the source; some entries with a clear call stand among them for comparison. Calls follow the shape of the dose curve; as a rule, active = well fitted inhibition curve with a large enough effect; inconclusive = small, poorly fitted or top-dose-only effect; inactive = no such curve, though single readings can be large or run the other way. Potencies of inconclusive entries are left out as doubtful fits.
molecular target: Glucagon-like peptide 1 receptor (Homo sapiens) (UniProt P43220); test: qHTS of GLP-1 Receptor Inverse Agonists (Inhibition Mode); conditions: HEK293 GLP-1R CRE-luciferase, luminescence, 24 h, GLP-1R form is constitutively active; activity change, negative = inhibition: at 38.3 µM (top of the series) unless noted; also: nearly all actives have a fitted effect of over 55% in size
Procedure, shortened: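 Readout was luciferase luminescence, measured 12 min after detection reagent at room temperature. Beforehand, GLP-1R reporter HEK293 cells had sat 12 h, then received compounds for 24 hr at 37 deg C.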
% is scaled to controls: 0 for no effect and ±100 for the full control effect; potency is read from the fitted curve at half-maximal effect; tags tell the direction and shape of the fitted curve.

UniProt P43220, sequence (P43220 whole entry, looked up): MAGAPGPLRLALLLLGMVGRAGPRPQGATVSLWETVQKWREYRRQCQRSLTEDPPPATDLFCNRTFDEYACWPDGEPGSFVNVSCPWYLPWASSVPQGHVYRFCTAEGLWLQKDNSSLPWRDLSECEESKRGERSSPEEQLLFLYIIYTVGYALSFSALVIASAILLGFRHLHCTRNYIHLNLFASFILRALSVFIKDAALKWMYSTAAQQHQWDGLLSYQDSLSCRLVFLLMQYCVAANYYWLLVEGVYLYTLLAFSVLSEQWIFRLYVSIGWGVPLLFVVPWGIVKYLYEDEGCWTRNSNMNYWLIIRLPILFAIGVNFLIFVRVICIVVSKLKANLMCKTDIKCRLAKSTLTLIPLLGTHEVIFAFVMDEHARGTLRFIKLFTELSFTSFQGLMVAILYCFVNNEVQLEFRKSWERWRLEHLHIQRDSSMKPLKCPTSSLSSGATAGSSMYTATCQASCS

SMILES | Potency | activity change, negative = inhibition
CC(C)(C)NC(=O)C(c1cc2ccccc2o1)n1c(=O)c(-c2ccco2)nc2ccccc21 (stereo unspecified) | inconclusive [inhibitor, single point] | 
CC1CN(CC(O)COc2ccccc2C(C)(C)C)CC(C)O1 (stereo unspecified) | inconclusive [inhibitor, partial curve] | 
COc1ccc(-n2c(=O)c3c4c(sc3n(CC(=O)Nc3cc(C)[nH]n3)c2=O)CCC4)c(OC)c1 | inconclusive [inhibitor, single point] | 
CCn1cc(CCC(=O)NCc2cccc(OC)c2OC)c2ccccc21 |  | inconclusive: -48.5% [inhibitor]
O=C(CN1C(=O)/C(=C\c2ccccc2Cl)Sc2ccccc21)NCCCN1CCOCC1 | inconclusive [inhibitor, partial curve, poor fit] | 
CC(C)N(C)S(=O)(=O)c1ccc(NC(=O)CSC(=S)N2CCCC2)cc1 | inconclusive [inhibitor, partial curve, poor fit] | 
CC(c1nccs1)N(C)C(=O)CCc1nnc(-c2ccc(-c3ccccc3)cc2)o1 (stereo unspecified) | inconclusive [inhibitor, single point] | 
O=C(Cn1ncn2c(cc3cc(F)ccc32)c1=O)NC1CCCCC1 |  | inactive: 9.8%
COc1ccc(NC(=O)Nc2cccc3c2O[C@H](CN(C)C(=O)Nc2ccc(OC)cc2)[C@@H](C)CN([C@H](C)CO)C3=O)cc1 |  | inactive: -1.76%
O=C(Cn1nnc(-c2ccc(C(F)(F)F)cc2)n1)NCCc1ccccc1 |  | inactive: 8.5%
CC(=O)Nc1ccc(S(=O)(=O)N2CCC(N3CCN(Cc4ccc(C)cc4)C(=O)C3=O)CC2)cc1 |  | inactive: 0.884%
COc1ccc2c(c1)C=C(CN1CCN(C3CCCC3)C(CCO)C1)CO2 (stereo unspecified) | inconclusive [inhibitor, partial curve, poor fit] | 
COC(=O)[C@@]1(Cc2ccc(OC)cc2)[C@H]2c3cc(C(=O)N4CCCC4)n(Cc4ccsc4Br)c3C[C@H]2CN1C(=O)c1ccccc1 | inconclusive [inhibitor, single point] | 
COc1cc(OC)c(C(=O)NCc2nc(-c3ccccc3)no2)cc1OC |  | inactive: 0.244%
O=C(Nc1cc(Cl)cc(Cl)c1)c1ccc(F)c(S(=O)(=O)N2CCCC2)c1 | inconclusive [inhibitor, partial curve] | 
CCOC(=O)C1CCC(CN(Cc2ccc(OC)cc2)S(=O)(=O)c2ccc(C)cc2)CC1 (stereo unspecified) | inconclusive [inhibitor, partial curve] | 
OC(COc1ccc(Cl)cc1)CN1CCN(c2ccccc2)CC1 (stereo unspecified) | inconclusive [inhibitor, partial curve, poor fit] | 
NC(c1ccc(F)c(F)c1)c1nc(-c2ccc3ccccc3c2)cs1 (stereo unspecified) |  | inactive: -11.6%
COc1ccc(Cn2c(CCC(=O)Nc3ccc(Br)c(C)c3)nc3cccnc32)cc1 | inconclusive [inhibitor, single point] | 
COC(=O)c1ccc(-n2c(C)cc(C(=O)CSc3ccc(NC(C)=O)cc3)c2C)cc1 | inconclusive [inhibitor, single point] | 
CCCc1cc(=O)[nH]c(SCC(=O)Nc2sc3c(c2C#N)CCC(C)C3)n1 (stereo unspecified) | inconclusive [inhibitor, single point] | 

SMILES | Potency | activity change, negative = inhibition
Cc1c(C(=O)NCCc2ccccc2)oc2ccc(S(=O)(=O)N3CCOCC3)cc12 | inconclusive [inhibitor, single point] | 
CCCS(=O)(=O)c1nc(S(=O)(=O)c2ccc(C)cc2)c(N2CCC(C)CC2)s1 | inconclusive [inhibitor, partial curve, poor fit] | 
CN(C)S(=O)(=O)c1cccc(NC(=O)COc2cccc3ccccc23)c1 | inconclusive [inhibitor, single point] | 
CN1CCN(c2cc(=O)n(Cc3ccc(F)cc3)c(=O)[nH]2)CC1 |  | inactive: 15.2%
C=C(C)CSc1nc2c(c(=O)[nH]c(=O)n2C)n1CCC(C)C | inconclusive [inhibitor, single point] | 
C=CCOc1c(CNC2CCCC2)cc(Cl)cc1OC | inconclusive [inhibitor, partial curve] | 
CCn1c(CNc2ccc(Cl)cc2)nnc1SCCN1CCCCC1 | inconclusive [inhibitor, partial curve, poor fit] | 
COc1ccc(OC)c(NC(=O)c2cc(-c3cc(C)ccc3O)n[nH]2)c1 |  | inconclusive: -47% [inhibitor]
COc1ccc(C)cc1Nc1nc2c(S(=O)(=O)c3cc(C)ccc3C)nnn2c2ccsc12 |  | inactive: -2.2%
Cc1ccc(CN2CCC(CNC(=O)Nc3ccccc3F)CC2)cc1 | inconclusive [inhibitor, partial curve, poor fit] | 
COc1cc(NC(=O)NCC2CCN(Cc3ccccc3C)CC2)cc(OC)c1OC |  | inconclusive: -61.1% [inhibitor]
O=C(COCc1ccccc1)N[C@@H]1c2ccccc2CC[C@H]1OCc1ccccc1 | inconclusive [inhibitor, single point] | 
Cc1cc(C)c(O)c(NC(=S)NC(=O)Cc2ccccc2)c1 | inconclusive [inhibitor, single point] | 
CC1=NN(C(=O)c2csc(C)c2C)C(O)(C(F)(F)F)C1 (stereo unspecified) | inconclusive [inhibitor, partial curve] | 
O=C(COc1ccc(Cl)cc1)NCCc1csc(-c2ccc(C(F)(F)F)cc2)n1 | inconclusive [inhibitor, single point] | 
CCn1c2ccccc2c2cc(NC(=O)CN(C)CC(=O)Nc3ccc(N4CCOCC4)cc3)ccc21 | inconclusive [inhibitor, partial curve] | 
O=C(c1c(Cl)cccc1Cl)N1CCCCCC1 | inconclusive [inhibitor, single point] | 
Cc1c(C(=O)N(C)Cc2ccc(OC(F)F)cc2)oc2ccccc12 | inconclusive [inhibitor, single point] | 
CCOC(=O)Cc1nnc(NC(=O)CSc2nc3ccccc3[nH]2)s1 |  | inactive: 14%
CCc1ccc(NC(=O)CSc2nnc(Cc3cccn3C)n2-c2ccc(F)cc2)cc1 | inconclusive [inhibitor, partial curve, poor fit] | 
CCc1c(CN2CCN(c3ccc(F)cc3)CC2)csc1C | inconclusive [inhibitor, partial curve, poor fit] | 

SMILES | Potency | activity change, negative = inhibition
COc1ccccc1C(=O)NC1CCSc2ccccc21 (stereo unspecified) | inconclusive [inhibitor, single point] | 
COc1ccccc1-c1cc(C(F)(F)F)nc(S(=O)(=O)CCCC(=O)Nc2ccccc2F)n1 |  | inactive: 6.29%
CCOC(=O)C1CCN(C2CCN(C(=O)c3oc4c(C)c(C)ccc4c3C)CC2)CC1 | inconclusive [inhibitor, partial curve, poor fit] | 
O=c1c2ccccc2ncn1-c1ccc(Cl)cc1[N+](=O)[O-] | inconclusive [inhibitor, single point] | 
Cn1cccc1Cc1nnc(SCC(=O)Nc2cccc(Cl)c2)n1-c1ccc(F)cc1 | inconclusive [inhibitor, single point] | 
COc1ccc(-c2nn(-c3ccccc3)cc2/C=C/C(=O)N2CCN(c3ccccn3)CC2)cc1 | inconclusive [inhibitor, partial curve, poor fit] | 
CCc1ccc(/C=N/NC(=O)c2ccc(OC3CCCC3)cc2)s1 | inconclusive [inhibitor, partial curve, poor fit] | 
CC1(c2ccccc2)NC(=O)N(CC(=O)Nc2cc(C(F)(F)F)ccc2N2CCCCC2)C1=O (stereo unspecified) | inconclusive [inhibitor, partial curve, poor fit] | 
COc1ccc(Cn2c(SCc3ccc(C(=O)NC4CCCCC4)cc3)nc3cccnc32)cc1 |  | inactive: 2.45%
CC(=O)c1cccc(-n2nnnc2SCC(=O)Nc2ccccc2N2CCCCC2)c1 | inconclusive [inhibitor, partial curve, poor fit] | 
CCNC(=S)N/N=C/c1cc(C)ccc1C | active: 4.47 µM | 
COCc1c(C(=O)N/N=C(/C)c2ccc(OCc3ccccc3)cc2)nnn1-c1nonc1N | inconclusive [inhibitor, single point] | 
Cc1cccc(NC(=O)c2cccc(N3C(=O)C4C5C=CC(C6CC56)C4C3=O)c2)c1 (stereo unspecified) | inconclusive [inhibitor, single point] | 
CC(C)(C)N=C1NN=C(c2ccc(Cl)cc2)CS1 | inconclusive [inhibitor, single point] | 
CC(=O)C1=C(C)NC(SCC(=O)Nc2nc3ccccc3s2)=C(C#N)C1c1ccc(Cl)cc1 (stereo unspecified) | inconclusive [inhibitor, partial curve, poor fit] | 
O=C1c2cccc(NCCCNCCO)c2C(=O)c2cccc(NCCCNCCO)c21 | inconclusive [inhibitor, partial curve, poor fit] | 
COc1ccc(-c2cc(C(=O)N(C)CC(=O)Nc3ccccc3Br)c3ccccc3n2)cc1OC | inconclusive [inhibitor, partial curve, poor fit] | 
Fc1cccc(CNC2CCN(CCc3ccccc3)CC2)c1 | inconclusive [inhibitor, single point] | 
O=C(Nc1cccc(S(=O)(=O)N2CCCCC2)c1)C1CCN(C(=O)c2ccc(Cl)cc2)CC1 | inconclusive [inhibitor, single point] | 

— PubChem BioAssay AID624417 (National Center for Advancing Translational Sciences (NCATS), 2012)
